Results: PubChem BioAssay AID720584 (National Center for Advancing Translational Sciences (NCATS), 2013)
The shares of active, inactive and inconclusive entries below differ from those in the screen. Potencies of inconclusive entries are left out as doubtful fits. Active and inactive are the calls of the source. Calls come from the whole dose curve; as a rule, active = well fitted inhibition curve with a large enough effect; inconclusive = small, poorly fitted or top-dose-only effect; inactive = flat fitted curve, though single readings scatter.

What follows are compounds tested on Trypanosoma brucei pyruvate kinase (TbPYK) (assay: qHTS of Trypanosoma Brucei Inhibitors: Orthogonal Assay for Cherry-picked Compounds). Details: recombinant TbPYK, ADP-Glo luminescence, 60 min; activity change, negative = inhibition: at 76.9 µM (top of the series).
Text: Members of the Trypanosomatidae family of parasitic protozoans cause a spectrum of diseases throughout the tropical and subtropical world. Sleeping sickness, caused by two subspecies of Trypanosoma brucei, is endemic to areas of sub-Saharan Africa, while Chagas' disease, a manifestation of Trypanosoma cruzi infection, is prevalent throughout Central and South America. In addition, many species of Leishmania are responsible for a range of cutaneous and visceral diseases, causing ulcers, destructive lesions and kalaazar, a lethal infection of the viscera. These diseases cause severe public health and economic burdens on populations that are often already caught in a tragic cycle of poverty, poor nutrition and disease. Collectively, parasites of the trypanosomatid family infect 30 million people worldwide (~500 million live in endemic areas), and account for ~130K deaths annually. Existing treatments have developed little in the past 50 years, and suffer from toxicity, poor efficacy and resistance; the goal of this project is to develop lead drugs that will be suitable for entry into pre-clinical trials. […] Glycolysis in axenically cultured T. cruzi, representing the intracellular pathogenic stage, is also essential for these parasites. {Engel, 1987} This project aims to discover and optimize selective inhibitors of the glycolytic enzyme pyruvate kinase (PYK) from Trypanosoma brucei, the parasite that causes sleeping sickness. […] Trypanosomatid PYKs show significant differences from their human counterparts including only 47-50% sequence identity and different allosteric and activation properties.{Callens, 1992} To this end, a qHTS was done against the MLSMR to discover inhibitors. To confirm activity of the cherrypicked compounds, an orthogonal assay was developed. While the primary qHTS provides a luminescence-based detection of TbPyK by measuring ATP production, the orthogonal assay will measure the amount of ADP substrate remaining. Decrease in activity signal indicative of inhibition of T. brucei proliferation is the desired outcome for this assay. NIH Molecular Libraries Probe Production Network [MLPCN] NIH Chemical Genomics Center [NCGC] Grant: MH095452 PI Name: Malcolm Walkinshaw, University of Edinburgh
Briefly, 2 uL of substrate/TbPYK buffer (all columns but column 4) are dispensed into Greiner white solid-bottom 1536-well assay plates. Column 4 gets just buffer without enzyme. Compounds are then transferred via Kalypsys pin tool equipped with 1536-pin array (10 nL slotted pins, V&P Scientific, San Diego, CA). Following addition of compound, 1 uL of ADP (130 uM final concentration, columns 1-48) is added to initiate the reaction. The plates are then incubated at room temperature for 60 minutes. ADP-Glo (Promega) reagent I is added (2.5 uL) and plates incubated for 10 minutes. ADP-Glo reagent II is then added (5 uL), followed by a 10 minute room temperature incubation, before being transferred to a ViewLux high-throughput CCD imager (PerkinElmer), wherein single end-point measurements of luminescence are acquired using a clear filter. All reagents are diluted in an assay buffer consisting of 50 mM TEA (pH 7.2), 100 mM KCl, 10 mM MgCl2, 0.05% BSA and 0.01% Tween-20.
% is set by controls: 0 for no effect and ±100 for the full control effect; potency is the fitted concentration of half-maximal effect; tags give direction and shape of the fitted curve.
Note: nearly all actives have a fitted effect of over 75% in size.

Q: For `O=S(=O)(NCCC1=CCCCC1)c1cccc(S(=O)(=O)N2CCOCC2)c1`, which “activity change, negative = inhibition” value is on record?
A: inactive: -6.04%

Q: For `Oc1ccc2c(c1)OCC1(O)Cc3cc(O)c(O)cc3C21` (stereo not given), which Potency is on record?
A: active: 3.16 µM

Q: With `COc1ccc(C(=O)N/N=C/c2ccc(N3CCOCC3)o2)cc1OC` as the compound, how does the Potency read?
A: inconclusive [inhibitor, single point]

Q: How did the Potency turn out when `CCCN1CCN(C(=O)c2ccc(-c3ccc([N+](=O)[O-])cc3)o2)CC1` was run?
A: inconclusive [inhibitor, single point]

Q: How did the “activity change, negative = inhibition” value turn out when `CCN(CC)c1ccc2nc3ccc(N)cc3[n+](-c3ccccc3)c2c1` was run?
A: inactive: 8.28%

Q: How did the “activity change, negative = inhibition” value turn out when `Cn1cccc1C(=O)C(=O)Nc1cc(Cl)cc(Cl)c1` was run?
A: inactive: 2.94%

Q: With `CC1COCC(C)N1C1=C(Cl)C(=O)c2ccccc2C1=O` (stereo not given) as the compound, how does the Potency read?
A: inconclusive [inhibitor, single point]

Q: For `c1cncc(Nc2nc(-c3cccs3)cs2)c1`, which Potency is on record?
A: inconclusive [inhibitor, single point]

Q: Which “activity change, negative = inhibition” value does the source give for `CN(C)c1ccc(/C=C/c2cc[n+](C)c3ccccc23)cc1` here?
A: inactive: 1.98%

Q: `Cc1ccc(S(=O)(=O)n2c([N+](=O)[O-])cnc2C)c(C)c1C` was tested. Which “activity change, negative = inhibition” value did it give?
A: inactive: -4.48%

Q: `CCCCC(=O)N(Cc1ccc2c(c1)OCO2)Cc1nc2ccccc2c(=O)[nH]1` was tested. Which “activity change, negative = inhibition” value did it give?
A: inactive: 2.17%

Q: Which “activity change, negative = inhibition” value does the source give for `Cc1ccc(C(=O)O/N=C(\N)c2ccccn2)c(Cl)c1` here?
A: inactive: 13.2%

Q: Which Potency does the source give for `CC(=O)Nc1ccc(C(=O)CSc2nnc(-c3ccc(O)cc3)n2CC2CCCO2)cc1` (stereo not given) here?
A: inconclusive [inhibitor, partial curve]

Q: How did the Potency turn out when `COc1ccc(OC)c(N=c2ssnc2Cl)c1` was run?
A: active: 14.1 µM

Q: `OCc1ccccc1-c1nc(NCc2ccccc2)nc2ccsc12` was tested. Which Potency did it give?
A: inconclusive [inhibitor, partial curve]

Q: `O=C(CCN1CCc2ccccc2C(c2ccccc2)C1)c1ccc2c(c1)OCCO2` (stereo not given) was tested. Which Potency did it give?
A: inconclusive [inhibitor, partial curve]

Q: `Cc1occc1-c1nnc(SCc2nnc(-c3ccc(Cl)cc3)o2)n1C` was tested. Which “activity change, negative = inhibition” value did it give?
A: inactive: -6.16%

Q: With `Cc1ccc(O)c(N=Nc2ccccc2)n1` as the compound, how does the “activity change, negative = inhibition” value read?
A: inactive: 15.5%

Q: Which “activity change, negative = inhibition” value does the source give for `CCOC(=O)c1ccc(NC(=O)CN2C(=O)CSC2=O)cc1` here?
A: inactive: -7.01%

Q: `CC1=CC(=O)C(Sc2ccc(C)cc2)=CC1=O` was tested. Which Potency did it give?
A: active: 2.51 µM

Q: Which Potency does the source give for `O=C1C=CC(=O)N1c1ccc(Nc2ccccc2)cc1` here?
A: inconclusive [inhibitor, single point]

Q: How did the Potency turn out when `Clc1cccc(Cc2c(-c3ccco3)nc3ccc(Br)cn23)c1` was run?
A: inconclusive [inhibitor, single point]

Q: For `CCN1C(=O)/C(=C/C=C2/Sc3ccc4ccccc4c3N2CCO)SC1=S`, which Potency is on record?
A: inconclusive [inhibitor, full curve]

Q: `COc1ccc(C2=CC(=O)C[C@H](c3ccc(OC)c(OC)c3)C2)cn1` was tested. Which “activity change, negative = inhibition” value did it give?
A: inactive: -0.876%

Q: How did the “activity change, negative = inhibition” value turn out when `COc1ccc(Cc2nnc(NS(=O)(=O)Cc3ccccc3)s2)cc1` was run?
A: inactive: -11.1%

Q: `O=C(c1ccccc1)c1ccc2nc(-c3ccco3)c(-c3ccco3)nc2c1` was tested. Which Potency did it give?
A: inconclusive [inhibitor, partial curve]

Q: How did the “activity change, negative = inhibition” value turn out when `O=C(COC(=O)c1ccccc1)c1ccc2c(c1)OCCO2` was run?
A: inactive: 0.431%

Q: `COc1ccc(C(Nc2ccccn2)c2oc(CO)cc(=O)c2O)cc1` (stereo not given) was tested. Which “activity change, negative = inhibition” value did it give?
A: inactive: 16.4%

Q: With `COCCN(Cc1cc2cccc(C)c2n2nnnc12)C(=O)C(F)(F)F` as the compound, how does the “activity change, negative = inhibition” value read?
A: inactive: -7.64%

Q: Which Potency does the source give for `N#CC1=C2SCN(c3ccccc3)CN2C(=O)CC1c1c(Cl)cccc1Cl` (stereo not given) here?
A: active: 2.51 µM

Q: How did the Potency turn out when `CCN1/C(=C/c2ccc3ccccc3[n+]2CC)C=Cc2ccccc21` was run?
A: inconclusive [inhibitor, partial curve]

Q: `O=C1C(=Cc2ccccc2Cl)CCc2ccccc21` was tested. Which “activity change, negative = inhibition” value did it give?
A: inactive: 9.41%

Q: `O=c1c2sccc2[nH]c(=S)n1Cc1ccccc1` was tested. Which Potency did it give?
A: active: 7.08 µM

Q: How did the “activity change, negative = inhibition” value turn out when `CCC(CC)C(=O)Nc1cccc(C(=O)NCc2ccco2)c1` was run?
A: inactive: -15.3%

Q: How did the “activity change, negative = inhibition” value turn out when `Oc1ccc(/C=N/Nc2nccnc2Cl)c(O)c1` was run?
A: inactive: 2.65%

Q: Which Potency does the source give for `O=S(=O)(O)c1cc(O)c(N=Nc2ccc(O)cc2O)c2ccccc12` here?
A: inconclusive [inhibitor, full curve]

Q: With `COc1cc(/C=C2\C(=O)ON=C2c2ccccc2)cc(OC)c1OC` as the compound, how does the Potency read?
A: inconclusive [inhibitor, partial curve]

Q: `FC(F)(F)Oc1ccc(Nc2nc(N3CCOCC3)nc(N3CCOCC3)n2)cc1` was tested. Which “activity change, negative = inhibition” value did it give?
A: inactive: -4.33%

Q: `Cc1nonc1C(=O)N/N=C/c1ccc(O)cc1` was tested. Which “activity change, negative = inhibition” value did it give?
A: inactive: 13.7%

Q: Which Potency does the source give for `COc1ccc(OC)c(NC(=O)c2ccccc2N(Cc2ccccc2)S(C)(=O)=O)c1` here?
A: active: 14.1 µM
